Data on 44 compounds can be found in PMC4336329 (PLoS ONE, 2015).

In all, about 310,000 compounds went through this assay and about 2,200 (0.71%) showed an effect of 50% or more. Effects have a minus sign here. The list shows a part of the results. Where a SMILES comes first, the peptide text is derived from it. [ ]: non-standard residue; d: D form. The star is where a group is joined. ξ: configuration not given here. Boc = CC(C)(C)OC(=O)*; NHBn = c1ccc(CN*)cc1; ξV = CC(C)C(N)C(=O)O

The target of the experiment is human ether-à-go-go-related gene (hERG) potassium channel (human, UniProt Q12809). The experiment is described as follows: primary screen, population patch clamp on CHO cells stably expressing hERG.
Sequence of human ether-à-go-go-related gene (hERG) potassium channel (Q12809 whole entry, looked up): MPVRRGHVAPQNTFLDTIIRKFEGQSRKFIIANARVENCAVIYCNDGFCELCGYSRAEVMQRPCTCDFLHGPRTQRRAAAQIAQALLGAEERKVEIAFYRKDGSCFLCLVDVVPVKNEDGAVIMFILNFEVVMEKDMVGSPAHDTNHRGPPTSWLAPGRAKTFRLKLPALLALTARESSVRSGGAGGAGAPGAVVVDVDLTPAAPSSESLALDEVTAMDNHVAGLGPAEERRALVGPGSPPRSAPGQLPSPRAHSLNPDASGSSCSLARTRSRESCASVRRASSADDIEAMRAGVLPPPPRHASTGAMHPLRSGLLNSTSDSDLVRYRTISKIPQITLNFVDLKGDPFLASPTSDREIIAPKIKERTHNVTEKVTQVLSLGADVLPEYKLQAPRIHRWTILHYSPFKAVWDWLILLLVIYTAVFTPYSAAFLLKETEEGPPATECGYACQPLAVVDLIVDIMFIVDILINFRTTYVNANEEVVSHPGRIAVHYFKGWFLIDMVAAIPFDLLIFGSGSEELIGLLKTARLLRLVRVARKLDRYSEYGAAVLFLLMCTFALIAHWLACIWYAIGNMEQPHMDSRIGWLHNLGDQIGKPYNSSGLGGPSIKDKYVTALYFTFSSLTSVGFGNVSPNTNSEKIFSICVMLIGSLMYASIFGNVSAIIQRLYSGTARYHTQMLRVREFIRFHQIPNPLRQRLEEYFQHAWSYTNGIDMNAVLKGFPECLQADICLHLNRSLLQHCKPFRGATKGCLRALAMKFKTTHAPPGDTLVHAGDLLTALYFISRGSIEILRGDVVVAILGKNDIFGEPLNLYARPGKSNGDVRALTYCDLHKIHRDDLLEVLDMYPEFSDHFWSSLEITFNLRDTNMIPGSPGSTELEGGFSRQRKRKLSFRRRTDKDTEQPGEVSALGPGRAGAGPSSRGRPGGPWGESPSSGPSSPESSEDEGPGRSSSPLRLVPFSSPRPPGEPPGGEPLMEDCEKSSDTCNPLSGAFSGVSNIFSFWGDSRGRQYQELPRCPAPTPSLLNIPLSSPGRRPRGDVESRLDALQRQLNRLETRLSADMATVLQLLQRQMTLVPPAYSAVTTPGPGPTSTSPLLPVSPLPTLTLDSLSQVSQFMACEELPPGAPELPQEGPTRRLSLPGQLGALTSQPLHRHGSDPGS
For `Cc1cccc(NS(=O)(=O)c2cccc(C(=O)NCC(c3ccco3)N3CCCCC3)c2)c1` (centres unmarked), the “hERG current change (%, negative = inhibition) at 1uM” value is given as 9.05%.

Consider `CCCCC(=O)Nc1nc(C)c(-c2csc(Nc3ccc(Cl)cc3)n2)s1`, for which the “hERG current change (%, negative = inhibition) at 1uM” value is given as -5.68%. With `CC1CCCN(C(=O)CN2CCC(c3nc4ccc(Cl)cc4[nH]3)CC2)C1` (centres unmarked), the “hERG current change (%, negative = inhibition) at 1uM” value was -35.9%. With `CC1Cc2nc(SCC(=O)Nc3ccccc3F)n(C)c(=O)c2S1` (centres unmarked) the figure was 1.68%; with `Cc1ccc(NC(=O)c2cc(S(=O)(=O)c3ccccc3)ccc2Cl)cc1`, 9.7%.

Take `CCn1nc(NC(=O)CC(C)C)c2cc3cccc(C)c3nc21`: the “hERG current change (%, negative = inhibition) at 1uM” value came out at 7.67%.

As for `Cc1c(C(=O)N2CCCCC2)c(S(=O)(=O)N2c3ccccc3CC2C)c(C)n1C` (centres unmarked), the “hERG current change (%, negative = inhibition) at 1uM” value stood at 10.4%.

For the compound `O=C(CSc1nnc(Cn2nnc3ccccc32)o1)Nc1ccc(Cl)cc1`, the “hERG current change (%, negative = inhibition) at 1uM” value came to 9.52%. On to `COc1cc(NC(=O)CN2c3cccc4cccc(c34)S2(=O)=O)cc(OC)c1OC`, for which the “hERG current change (%, negative = inhibition) at 1uM” value is listed as 5.62%. With `Cc1ccc(Cn2cc(SCC(=O)Nc3nccs3)c3ccccc32)cc1` the figure was 5.73%; with `Nc1cc(=O)[nH]c(SCC(=O)Nc2ccc(S(=O)(=O)N3CCCCC3)cc2)n1`, 14.7%; with `COc1ccc(/C(C)=N/N=C2/NC(=O)CC(C(=O)O)S2)cc1F` (centres unmarked), 12.3%.

For `Cn1c(=O)c2c(-c3ccc(C(C)(C)C)cc3)n(CC3CCCO3)cc2n(C)c1=O` (centres unmarked), the “hERG current change (%, negative = inhibition) at 1uM” value was determined as 6.51%. For the compound `N#CC1=C(S)N(c2ccccc2)C2(CCCCC2)NC1=O`, the “hERG current change (%, negative = inhibition) at 1uM” value is recorded as -1.63%. As to `CCCNC(=O)CSc1ccc(S(=O)(=O)N2CCCC2)cn1`, the “hERG current change (%, negative = inhibition) at 1uM” value is 10.2%.

Regarding `Cc1ccccc1CN(c1ccc(C(=O)N/N=C/c2ccc(OCC(N)=O)cc2)cc1)S(C)(=O)=O`, the “hERG current change (%, negative = inhibition) at 1uM” value is 3.63%.

Consider `O=C(NC1CCSC1=O)c1ccc(Oc2ccc(F)cc2)nc1` (centres unmarked), for which the “hERG current change (%, negative = inhibition) at 1uM” value worked out at 18.1%.

Regarding `C/C(CCC(C)C)=N\NC(=S)NCc1ccccc1`, the “hERG current change (%, negative = inhibition) at 1uM” value is recorded as 5.51%.

For the compound `COc1ccc(NS(=O)(=O)c2ccc(N3CCOCC3)c(NC(=O)C(C)C)c2)cc1`, the “hERG current change (%, negative = inhibition) at 1uM” value is -1.29%. With `Cc1cccc(N2C(S)=C(C#N)C(=O)NC2c2ccco2)c1` (centres unmarked) the figure was 3.99%; with `CCn1c(CNC(=O)Cc2ccc(OC)cc2)nnc1SCC(=O)NC1CCCCC1`, -7.08%.

For the compound `Cc1cc2oc(C(=O)NCc3ccc(S(N)(=O)=O)cc3)c(C)c2cc1C`, the “hERG current change (%, negative = inhibition) at 1uM” value came to 7.87%. With `C=CCn1c(O)c(N=Nc2ccccc2)c2ccccc21` the figure was 3.26%. Regarding `CCC(C)NC(=O)c1ccc2c(SCC(=O)O)c3c(nc2c1)CCCC3` (centres unmarked), the “hERG current change (%, negative = inhibition) at 1uM” value is 3.13%.

Turning to `COCc1cc(C)n(CC(=O)N2CCCC2)c(=O)c1C#N`, the “hERG current change (%, negative = inhibition) at 1uM” value is recorded as 12%. With `COc1ccc(NC(=O)COC(=O)CC2CCCC2)cc1Cl` the figure was 2.83%; with `O=C(Nc1ccccc1C(=O)O)/C(=C/c1ccc(Cl)cc1Cl)NC(=O)c1ccco1`, 21.3%; with `O=C(NNS(=O)(=O)c1ccccc1Cl)c1nn(-c2ccc(F)cc2)ccc1=O`, 13.1%. With `CC(C)C(NC(=O)CNC(=O)OC(C)(C)C)C(=O)NCc1ccccc1` (stereo not drawn) (Boc-Gly-[ξV]-NHBn), the “hERG current change (%, negative = inhibition) at 1uM” value is reported as 7.3%. With `CC(C)(C)c1cc(NC(=O)c2c(F)cccc2Cl)n(-c2ccccc2)n1` the figure was 14.8%; with `CC(=O)c1cccc(N(C(=O)c2ccco2)C(C(=O)NC2CCCC2)c2ccc(N3CCOCC3)cc2)c1` (centres unmarked), 13.1%; with `O=C(Nc1c2ccccc2nc2ccccc12)C(Cl)(Cl)Cl`, 1.68%. As for `COc1ccccc1CCNC(=O)Cn1ccc2cc(S(=O)(=O)N3CCC(C)CC3)ccc21`, the figure is 24.2%. As for `COCCn1c(=S)[nH]c2cc(C(=O)NCCc3ccc(OC)c(OC)c3)ccc2c1=O`, the figure is 5.51%; as for `Cc1nc2ccc(Cl)cc2c(-c2ccccc2F)c1CC(=O)O`, -0.722%. As to `CC(=O)c1ccc(-n2c(CCC(=O)O)ccc2-c2ccc(C)cc2)cc1`, the “hERG current change (%, negative = inhibition) at 1uM” value was 9.83%. As for `C/C(N)=C(/C#N)C(=O)CSc1nnnn1-c1ccccc1`, the figure is 13.9%; as for `Cn1c(CSCc2ccc(Cl)c(Cl)c2)nnc1SCC(=O)Nc1nccs1`, 2.81%; as for `O=C(CCC(=O)N(CC(=O)NC1CCCCC1)c1ccc(F)cc1)Nc1nccs1`, 1.74%. As for `COc1ccc(-c2cc(C(=O)Nc3cccnc3)no2)cc1OC`, the figure is 16.2%; as for `CC1CCN(C(=O)CCCOc2cc(=O)n(C)c3ccccc23)CC1`, -12.2%. With `Cc1ccccc1N1C(N)=NC(N)=NC1(C)C.Cl` the figure was 7.03%. Consider `Cc1occc1C(=O)NNC(=O)c1ccccc1C(=O)O`, for which the “hERG current change (%, negative = inhibition) at 1uM” value is on record as 10.9%.

In the case of `c1coc(CNc2c3c(nc4ccccc24)CCC3)c1`, the “hERG current change (%, negative = inhibition) at 1uM” value is listed as -82%.
